Among all 140,000 compounds or so, about 240 (0.17%) were called active. This list was built around the results that the source calls inconclusive (neither active nor inactive); the mix of calls is not that of the screen. The call rests on the fitted dose curve; in most records, active means well fitted inhibition curve with a large enough effect; inconclusive means small, poorly fitted or top-dose-only effect; inactive means no such curve, though single readings can be large or run the other way. Potencies beside an inconclusive call are fits to weak or partial responses and may not hold up.
Assay: Primary qHTS assay for inhibitors of alpha-synuclein gene (SNCA) expression; further: nearly all actives have a fitted effect of over 45% in size;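 on activity change, negative = inhibition: plate controls were DMSO cells for no effect and cell-free wells for full effect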
Conditions: HEK-293 SNCA-luciferase knock-in, luminescence, 24 h; activity change, negative = inhibition: at 57.2 µM (top of the series) unless noted
Potency means the concentration at half of the fitted maximal effect; tags describe the fitted curve by direction and shape.

| SMILES | Potency | activity change, negative = inhibition |
| --- | --- | --- |
| CC(C)c1ccc(C2NC(=O)c3n[nH]c(-c4cccs4)c32)cc1 (stereo unspecified) | inconclusive: 10 µM [inhibitor, partial curve, poor fit] | – |
| O=C1c2cc(N3CCOCC3)nc(-c3cnc4[nH]ccc4c3)c2CN1CC(F)(F)F | – | inactive: -1.92% [at 87.6 µM] |
| CC(C)(C)CC(=O)N1CCC(N2C(=O)CCC2C(=O)NCc2ccccc2)CC1 (stereo unspecified) | – | inactive: 17.8% |
| COc1ccc(Cn2c(=O)n(Cc3ccco3)c(=O)c3oc4ccccc4c32)cc1 | inconclusive: 17.8 µM [inhibitor, single point] | – |
| CCOc1ccc(CCNC(=O)CS(=O)(=O)Cc2nc(-c3ccc(OC)cc3)oc2C)cc1 | inconclusive: 7.08 µM [inhibitor, single point] | – |
| CCN(CC)c1ccc(NC(=O)c2cnn(-c3ccccc3)c2-n2cccc2)c(C)c1 | inconclusive: 17.8 µM [inhibitor, single point] | – |
| COc1ccc(-c2nc(CSCC(=O)N3CCN(c4cc(Cl)ccc4C)CC3)c(C)o2)cc1 | inconclusive: 8.91 µM [inhibitor, partial curve, poor fit] | – |
| O=C(CCS(=O)(=O)c1ccc(Br)cc1)Nc1ccc(F)cc1F | inconclusive: 7.08 µM [inhibitor, single point] | – |
| Cc1cccc(NS(=O)(=O)c2ccc3c(c2)CC(C)N3C(=O)C2CCC2)c1C (stereo unspecified) | inconclusive: 28.2 µM [inhibitor, single point] | – |
| CCOc1ccc(N2CC(c3nc4ccccc4n3CCOc3ccccc3OC)CC2=O)cc1 (stereo unspecified) | inconclusive: 39.8 µM [inhibitor, single point] | – |
| COc1ccc(Nc2cnc3ccc(-c4ccccc4)nn23)cc1OC | inconclusive: 3.16 µM [inhibitor, partial curve, poor fit] | – |
| O=C(NCCCN1CCCCCC1)c1ccc2c(c1)sc1nc(-c3ccccc3)cn12 | – | inactive: -35.3% |
| Cc1ccc(CNC(=O)CCCn2c(=O)c3ccccc3n(CC(=O)Nc3ccc(C)cc3)c2=O)cc1 | inconclusive: 3.16 µM [inhibitor, full curve] | – |
| Cc1nc2cc(-c3ccccc3)nn2c(C)c1CCC(=O)Nc1ccc(F)cc1F | inconclusive: 14.1 µM [inhibitor, single point] | – |
| CN(C)C(=O)[C@H](O)[C@H](Cc1ccccc1)NC(=O)c1cc2cc(Cl)ccc2[nH]1 | inconclusive: 0.857 µM [inhibitor, full curve] | – |
| O=C(NCCC1=CCCCC1)C1CC(=O)N(c2n[nH]c3ccccc23)C1 (stereo unspecified) | – | inactive: 24.4% |
| CCn1ncc(CN2CCCC23CCN(c2ccc(C(F)(F)F)cn2)CC3)c1C | – | inactive: 17.3% |
| O=C(C1CCN(c2nccc(Nc3ccccc3Cl)n2)CC1)N1CCOCC1 | – | inactive: 37% |
| COC(=O)N1CCCc2cc(S(=O)(=O)NCc3ccccc3)ccc21 | inconclusive: 3.98 µM [inhibitor, single point] | – |
| Cc1cccc(C)c1-c1cc(C(=O)NCCCc2ccccc2)c2cnn(C)c2n1 | inconclusive: 12.6 µM [inhibitor, partial curve, poor fit] | – |
| Cc1ccc(NC(=O)CCc2c(C)nc3c(-c4ccc(F)cc4)c(C)nn3c2C)cc1F | inconclusive: 3.98 µM [inhibitor, single point] | – |

| SMILES | Potency | activity change, negative = inhibition |
| --- | --- | --- |
| Cc1cc(C)c(Nc2ncnc3c2cnn3C)c(C)c1 | – | inactive: -3.09% |
| O=C(c1ccc(Cl)cc1)N1CCC(N2Cc3ccccc3C2=O)CC1 | inconclusive: 8.91 µM [inhibitor, partial curve, poor fit] | – |
| Cc1cccc(C)c1NC(=O)c1ccc2c(c1)nnn2C1CCCC1 | inconclusive: 3.16 µM [inhibitor, single point] | – |
| O=c1cc(N2CCOCC2)oc2c(NCC3CCOCC3)nccc12 | inconclusive: 3.98 µM [inhibitor, partial curve, poor fit] | – |
| CCc1ccc(CSc2nc(-c3ccccc3F)nc3c2Cc2c(CO)cnc(C)c2O3)cc1 | inconclusive: 28.2 µM [inhibitor, single point] | – |
| O=C(N1CCN(c2ncccn2)CC1)C1(c2ccc(Cl)cc2)CCOCC1 | inconclusive: 3.55 µM [inhibitor, single point] | – |
| CN(CC1CCOC1)C(=O)Cc1cccc(F)c1 (stereo unspecified) | inconclusive: 39.8 µM [inhibitor, single point] | – |
| Cc1cccc(CN2C(=O)c3ccccc3Sc3ccc(C(=O)NC4CCCCC4)cc32)c1 | inconclusive: 1.26 µM [inhibitor, partial curve, poor fit] | – |
| CC(C)(C)c1ccc(C(=O)NCC(c2cccnc2)N2CCc3ccccc3C2)cc1 (stereo unspecified) | inconclusive: 39.8 µM [inhibitor, single point] | – |
| COc1cc(OC)c(C(=O)N[C@H]2COC[C@H]2Cc2cc(C)no2)cc1OC | – | inactive: -19% |
| COc1ccc(OC(=O)c2nc(SCc3ccccc3F)ncc2Cl)cc1 | inconclusive: 6.31 µM [inhibitor, full curve, poor fit] | – |
| COc1cc(CNC(=O)c2ccc3c(c2)NC(C)(CNc2ccccc2)CO3)cc(OC)c1 (stereo unspecified) | inconclusive: 39.8 µM [inhibitor, single point] | – |
| COc1ccccc1C(=O)Nc1ccc(C(=O)OCc2cc(=O)n3nc(C)sc3n2)cc1 | inconclusive: 3.98 µM [inhibitor, single point] | – |
| CN(C(=O)c1ccc2c(Cl)c3c(nc2c1)CCC3)c1ccccc1F | inconclusive: 39.8 µM [inhibitor, single point] | – |
| Cn1c(=O)n([C@H]2CCCN(C(=O)Nc3ccc4c(c3)OCCO4)C2)c2ncccc21 | – | inactive: 6.58% |
| CCc1ccc(NC(=O)Cn2c(N3CCC(C)CC3)nc(C)cc2=O)cc1 | – | inactive: -17.3% |
| CCC(CC)C(=O)Nc1cc(-c2ccccc2F)nn1-c1ccccc1 | inconclusive: 39.8 µM [inhibitor, single point] | – |
| O=S(=O)(c1ccccc1)N1CCC(c2nc(CCOCC3CC3)no2)C1 (stereo unspecified) | inconclusive: 39.8 µM [inhibitor, single point] | – |
| Cc1ccc(OCC(=O)N2CCC(Cc3nc(-c4cnccn4)no3)CC2)cc1 | – | inactive: -33.9% |
| CCCCCn1c(CCNC(=O)c2cccc(C)c2)nc2ccccc21 | inconclusive: 39.8 µM [inhibitor, single point] | – |

From PubChem BioAssay AID1671194 (National Center for Advancing Translational Sciences (NCATS), 2021)
